Sequences with one replicate were seen in a single cluster, so their values are uncertain.
Test system: ATP
Experiment: switch fluorescence ratio, 500 uM ATP over buffer (Cy3 cluster intensity, sum of 5 cycles each) (fold (ratio)); higher = stronger signal-on switching upon ATP binding; sequences stand for … in TCGTCGGCAGCGTCAGATGTGTATAAGAGACAGTTTTTTTTTTTTTTTTTTTTTTTTT…TC
Details: aptamer strand: ATP DNA aptamer (quencher-CACCTGGGGGAGTATTGCGGAGGAAGG + anchor), 100 nM annealed; ATP concentration: 500 uM; one replicate
Method in brief: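 After annealing to 100 nM quencher-labelled ATP aptamer, Cy3-labelled switching-strand clusters on a modified Illumina MiSeq flow-cell were imaged in selection buffer. A second image followed after 15 min with 500 uM ATP at 22 °C, and five such buffer/ATP cycles were done, each separated by NaOH stripping and re-annealing. The fluorescence ratio, averaged per switch-domain sequence, is summed target-cycle over summed buffer-cycle Cy3 intensity per cluster, with clusters outside 100-1000 RFU excluded.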
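Note: ATP exposure 15 min at 22 °C before imaging.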

CAGAGAAGAC
switch fluorescence ratio: 1.07

GGATGGCCTG
switch fluorescence ratio: 1.01

TATTTTCGCT
switch fluorescence ratio: 0.969

TTTAATGTGT
switch fluorescence ratio: 0.964

AGGCTTTTCA
switch fluorescence ratio: 0.988

ATGGTACTGT
switch fluorescence ratio: 1.09

TCCTTTGTTA
switch fluorescence ratio: 1.01

ATTAATTCTC
switch fluorescence ratio: 1.08

GCTTTAGCTG
switch fluorescence ratio: 1.01

ACGTAGACCA
switch fluorescence ratio: 1.11

TAATGACTTT
switch fluorescence ratio: 1.05

AATCCAAACT
switch fluorescence ratio: 1.05

GCAATAGGCA
switch fluorescence ratio: 1.08

GCTTTTTCGG
switch fluorescence ratio: 1

ACAGATAGGG
switch fluorescence ratio: 1.04

CGGCCTGTAG
switch fluorescence ratio: 0.995

TTGCCCCGGG
switch fluorescence ratio: 0.98

GTTCGCGTTC
switch fluorescence ratio: 1.15

CGCACGGCCT
switch fluorescence ratio: 1.01

TGAAAAGACT
switch fluorescence ratio: 0.939

CAATGCTGTT
switch fluorescence ratio: 1.04

ACATTGTCG
switch fluorescence ratio: 1.02

GCTTCAAATC
switch fluorescence ratio: 1.01

TGGCGGAAAT
switch fluorescence ratio: 1.01

AACGCTCTGA
switch fluorescence ratio: 1.02

TCTTCAGCTT
switch fluorescence ratio: 1.14

CAGACAAAAT
switch fluorescence ratio: 1.15

AGAAAACGTG
switch fluorescence ratio: 0.975

GTTCCACCAC
switch fluorescence ratio: 1.07

CTCTTCCGT
switch fluorescence ratio: 1.21

GGTCTATGGC
switch fluorescence ratio: 0.989

TGAGGGAATC
switch fluorescence ratio: 1

CTCTTGTAGG
switch fluorescence ratio: 0.943

AACATAAGTC
switch fluorescence ratio: 1.03

CGTTAATCAT
switch fluorescence ratio: 0.988

TATAATAGTG
switch fluorescence ratio: 0.939

CGGCTTTGC
switch fluorescence ratio: 1.09

GCGAAGGCCC
switch fluorescence ratio: 0.984

GGGAATCTAT
switch fluorescence ratio: 0.999

ACCATCACGT
switch fluorescence ratio: 1.3

GCCTGGATCA
switch fluorescence ratio: 1.03

ACTGCGAAGC
switch fluorescence ratio: 1.04

CTGGACCTTA
switch fluorescence ratio: 1.04

CAGGGATCGT
switch fluorescence ratio: 1.05

TCTACACGCT
switch fluorescence ratio: 1.02

ATAAGTGTCG
switch fluorescence ratio: 0.966

ACGTTTCGAA
switch fluorescence ratio: 0.978

GCGCTTGGCC
switch fluorescence ratio: 0.994

GGGCGAGGGA
switch fluorescence ratio: 1.16

AGAGGAATTA
switch fluorescence ratio: 0.99

TTTTGGTAT
switch fluorescence ratio: 1.01

GTGTTATGTT
switch fluorescence ratio: 1.01

CTCCTAAACT
switch fluorescence ratio: 1.11

TCTCAAATTG
switch fluorescence ratio: 1.01

AGGGTACGTA
switch fluorescence ratio: 0.988

AAATTATGTG
switch fluorescence ratio: 1.02

GCACCGCAGC
switch fluorescence ratio: 2.61

CAACTGTCAC
switch fluorescence ratio: 1.22

AGGCGGTTGA
switch fluorescence ratio: 1.01

CGCCGCGTCG
switch fluorescence ratio: 1.11

CGGAATCTTG
switch fluorescence ratio: 0.98

GAAAGTTGAT
switch fluorescence ratio: 0.972

TGCCCATGGT
switch fluorescence ratio: 1.11

AGATTCCTTC
switch fluorescence ratio: 1.05

ACCGACAGCT
switch fluorescence ratio: 1.46

CGATATTGGG
switch fluorescence ratio: 0.99

AGCCTTGTAG
switch fluorescence ratio: 0.96

TAATTCTTCT
switch fluorescence ratio: 1.03

AGCGCTAT
switch fluorescence ratio: 0.95

AGCTTAAATC
switch fluorescence ratio: 1.05

GTCGACCTGA
switch fluorescence ratio: 1.01

ATGTTTTTCC
switch fluorescence ratio: 1.01

GTTTGATTTT
switch fluorescence ratio: 0.956

GAATTAAGAA
switch fluorescence ratio: 0.984

ACGGTATTCA
switch fluorescence ratio: 1.1

GCTTATCTG
switch fluorescence ratio: 0.973

CGCATGGTCA
switch fluorescence ratio: 1.14

GGTCTATCGC
switch fluorescence ratio: 1

CCATGATGGG
switch fluorescence ratio: 0.994

GGGCAGGGTG
switch fluorescence ratio: 1.07

TTGGGCGGAT
switch fluorescence ratio: 0.974

TTCTGCGGTC
switch fluorescence ratio: 2.62

CTAAGTCTA
switch fluorescence ratio: 0.982

GATCTCTCTA
switch fluorescence ratio: 1.02

CGTACGTGAT
switch fluorescence ratio: 1.55

AGTAGATCTG
switch fluorescence ratio: 1

GGTACGGCCC
switch fluorescence ratio: 0.992

AAACAGTAGG
switch fluorescence ratio: 1.06

GGTGCTTAGC
switch fluorescence ratio: 1.1

GCCAAATAGG
switch fluorescence ratio: 1.03

TATGCGGTC
switch fluorescence ratio: 0.951

CTTGTTTGGA
switch fluorescence ratio: 1.02

TTGTTTATTA
switch fluorescence ratio: 0.945

CGCCTTGCTT
switch fluorescence ratio: 0.983

AACAAGGCGA
switch fluorescence ratio: 1

GAACCGTCTG
switch fluorescence ratio: 1.01

ATATATTT
switch fluorescence ratio: 0.958

CCGTTAGGG
switch fluorescence ratio: 1.04

CGGTAGAAAC
switch fluorescence ratio: 0.958

ACATCAAAGG
switch fluorescence ratio: 1.07

GGGCGAAGTG
switch fluorescence ratio: 0.955

TAAACATGCG
switch fluorescence ratio: 0.978

GTCATCGACC
switch fluorescence ratio: 1.02

GCGCATACTG
switch fluorescence ratio: 2.23

AGAAGGTAGC
switch fluorescence ratio: 0.968

AAAAGAGGAC
switch fluorescence ratio: 1.02

AGAGTCTTTA
switch fluorescence ratio: 0.98

TTTCACTTTC
switch fluorescence ratio: 1.1

CGTAGAATAT
switch fluorescence ratio: 1.02

TAAGTCTTTA
switch fluorescence ratio: 1.01

TTCATACCCT
switch fluorescence ratio: 1.06

AAAGGATCCG
switch fluorescence ratio: 1.05

CTGCTGCAGT
switch fluorescence ratio: 1.03

GTTCTAGGAT
switch fluorescence ratio: 0.985

TACAAGAATT
switch fluorescence ratio: 1.04

GTCATAAAGT
switch fluorescence ratio: 1.02

TCCTGTATGA
switch fluorescence ratio: 1.04

AATATATCTG
switch fluorescence ratio: 1.07

GGCTTGGTTT
switch fluorescence ratio: 0.975

TTTCTTCACG
switch fluorescence ratio: 0.934

ATGCCTCGTC
switch fluorescence ratio: 1.05

TACGATGGAA
switch fluorescence ratio: 1.02

TTTTATCTGC
switch fluorescence ratio: 1.01

GCCGGTTTG
switch fluorescence ratio: 1.02

ATAGGACAGA
switch fluorescence ratio: 1.03

GTGTGATGCC
switch fluorescence ratio: 0.981

CGACGCTAGA
switch fluorescence ratio: 3.52

TGCTATTCTT
switch fluorescence ratio: 0.993

CAGCGGCAGC
switch fluorescence ratio: 1.01

CAACGTTGGA
switch fluorescence ratio: 0.998

TAGGGAAGTG
switch fluorescence ratio: 1.01

GAGGCGCATA
switch fluorescence ratio: 1.09

TGATGGCTGA
switch fluorescence ratio: 1.01

AACTATAGTC
switch fluorescence ratio: 0.983

TAAATTCCTC
switch fluorescence ratio: 1.09

CGCTCGGGAA
switch fluorescence ratio: 1.03

TCCACATTGG
switch fluorescence ratio: 1.01

ATGTGTTTTG
switch fluorescence ratio: 1.1

ATCAAGCACA
switch fluorescence ratio: 1.31

TCATCGCCCG
switch fluorescence ratio: 0.952

CGTGATGGTC
switch fluorescence ratio: 1.07

AGTTGCTGCG
switch fluorescence ratio: 0.983

GGACTCCTAC
switch fluorescence ratio: 1.46

CGTCAAAATC
switch fluorescence ratio: 1.94

CAGATGGTAG
switch fluorescence ratio: 0.988

CTCTGGTTTC
switch fluorescence ratio: 1.18

TAGGCATCTC
switch fluorescence ratio: 0.941

TGGTTGCCAT
switch fluorescence ratio: 0.973

TGGCGATTGA
switch fluorescence ratio: 0.966

ACGAAAAGGT
switch fluorescence ratio: 1.22

CGCGTGGAAA
switch fluorescence ratio: 0.987

CGTTACCGCC
switch fluorescence ratio: 1.11

GGGCACCAGA
switch fluorescence ratio: 0.958

CTGGTAATTC
switch fluorescence ratio: 1.08

GAAGTCAACA
switch fluorescence ratio: 1.02

ATAGTAGACT
switch fluorescence ratio: 1.02

GGACGAAAAC
switch fluorescence ratio: 1.01

Reference: the supplement of paper PMC10126150
